In the supplement of paper PMC12217912:
The list shows a part of the results. Sequences were assembled here from the parent chain. Inactive controls read about 0.05.

B1: TEV protease; numbered along this chain (parent)
chain: MGESLFKGPRDYNPISSSICHLTNESDGHTTSLYGIGFGPFIITNKHLFRRNNGTLVVQSLHGVFKVKDTTTLQQHLVDGRDMIIIRMPKDFPPFPQKLKFREPQREERICLVTTNFQTKSMSSMVSDTSCTFPSGDGIFWKHWIQTKDGQCGSPLVSTRDGFIVGIHSASNFTNTNNYFTSVPKNFMELLTNQEAQQWVSGWRLNADSVLWGGHKVFMVKPEEPFQPVKEATQL

Variants of: B1
Assay: raw area under fraction-flipped curve 0-4 h after induction (AUC4h, not background-subtracted), DNA-recorder readout of cleavage of the substrate (dimensionless); higher = more cleavage of the substrate by the protease variant
Conditions: temperature: 34 °C; time window: 0-4 h after rhamnose induction
Method: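 In vivo DNA recorder in E. coli TOP10(DE3) ΔrhaA at 34 °C. Each TEVp single-site mutant (parent TEVp 0) is paired with a single-site variant of the 7-mer TEVs (canonical ENLYFQ|S). The substrate sits between flexible linkers in a Bxb1-sfGFP-TEVs-SsrA fusion, so cleavage stabilises Bxb1 and speeds flipping of a recombination array, read by NGS. The value is the raw area under the fraction-flipped curve over 0-4 h after rhamnose induction (AUC4h), with ≥20 reads per time point. It is not background-subtracted; inactive controls average about 0.047.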
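Note: Bxb1 expression induced with 0.2% (w/v) L-rhamnose at OD600 near 0.5, cultures sampled hourly, flipped fraction per protease–substrate barcode pair counted by paired-end Illumina sequencing.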

Variant | area with substrate ENLYCQS | area with substrate ENLYDQS | area with substrate ENLYHQS | area with substrate ENLYIQS | area with substrate ENLYKQS | area with substrate ENLYLQS | area with substrate ENLYNQS | area with substrate ENLYRQS | area with substrate ENLYTQS | area with substrate ENLYEQS | area with substrate ENLYGQS | area with substrate ENLYMQS | area with substrate ENLYPQS | area with substrate ENLYQQS | area with substrate ENLYSQS | area with substrate ENLYVQS | area with substrate ENLYWQS | area with substrate ENLYYQS
MGESLFKGPRDYNPISSSICHLTNESDGHTTSLYGIGFGPEIITNKHLFRRNNGTLVVQSLHGVFKVKDTTTLQQHLVDGRDMIIIRMPKDFPPFPQKLKFREPQREERICLVTTNFQTKSMSSMVSDTSCTFPSGDGIFWKHWIQTKDGQCGSPLVSTRDGFIVGIHSASNFTNTNNYFTSVPKNFMELLTNQEAQQWVSGWRLNADSVLWGGHKVFMVKPEEPFQPVKEATQL [F41E] | 0.035 | 0.0501 | 0.0564 | 0.0541 | 0.05 | 0.034 | 0.0423 | 0.0484 | 0.0256 | – | – | – | – | – | – | – | – | –
MGESLFKGPRDYNPISSSIIHLTNESDGHTTSLYGIGFGPFIITNKHLFRRNNGTLVVQSLHGVFKVKDTTTLQQHLVDGRDMIIIRMPKDFPPFPQKLKFREPQREERICLVTTNFQTKSMSSMVSDTSCTFPSGDGIFWKHWIQTKDGQCGSPLVSTRDGFIVGIHSASNFTNTNNYFTSVPKNFMELLTNQEAQQWVSGWRLNADSVLWGGHKVFMVKPEEPFQPVKEATQL [C20I] | 0.0869 | 0.0608 | 0.0715 | 0.118 | 0.0721 | – | 0.0718 | 0.0633 | 0.0879 | 0.0701 | 0.0685 | 0.0894 | 0.0643 | 0.0531 | 0.0802 | 0.0651 | 0.0838 | 0.0718
MGESLFKGPRDYNPISSSICHLTNESDGHTTSLYGIGFGPFIITNKHLFRRNNGTLVVQSLHGVFKVKDTTTLQQHLVDGRDMIIIRMPKDFPPFPQKLKFREPQREKRICLVTTNFQTKSMSSMVSDTSCTFPSGDGIFWKHWIQTKDGQCGSPLVSTRDGFIVGIHSASNFTNTNNYFTSVPKNFMELLTNQEAQQWVSGWRLNADSVLWGGHKVFMVKPEEPFQPVKEATQL [E108K] | 0.0578 | 0.0451 | 0.0571 | – | 0.0379 | – | – | – | – | 0.06 | – | 0.0702 | 0.0406 | – | – | 0.0722 | – | 0.0439
MGESLFKGPRDYNPISSSICHLTNESDGHTTSLYGIGFGPFIITNKHLFRENNGTLVVQSLHGVFKVKDTTTLQQHLVDGRDMIIIRMPKDFPPFPQKLKFREPQREERICLVTTNFQTKSMSSMVSDTSCTFPSGDGIFWKHWIQTKDGQCGSPLVSTRDGFIVGIHSASNFTNTNNYFTSVPKNFMELLTNQEAQQWVSGWRLNADSVLWGGHKVFMVKPEEPFQPVKEATQL [R51E] | 0.13 | 0.0595 | 0.0689 | 0.111 | 0.0697 | 0.0846 | – | 0.0649 | – | 0.0719 | 0.0623 | 0.0698 | 0.0578 | 0.0568 | 0.0802 | 0.15 | – | –
MGESLFKGPRDYNPISSSICHLTNESDGHTTSLYGIGFGPFIITNKHLFRRNNGTLVVQSLHGVFKVKDTTTLQQHLVDGRDMIIIRMPKDFPPFPQKLKFREPQREERICLVTTNFQTKSMSSMVSDTSCTFPSGDGIFWKHWIQTKDGQCGSPLVSTRDGFIVGIHSASNFTNTNNYFTSVPKNFMELLTNQEAQQWVSGWRLQADSVLWGGHKVFMVKPEEPFQPVKEATQL [N206Q] | 0.0781 | 0.0644 | 0.0633 | 0.108 | – | – | 0.069 | – | – | 0.0643 | – | – | 0.0539 | 0.0702 | 0.0799 | 0.108 | 0.083 | –
MGESLFKGPRDYNPISSSICHLTNESDGHTTSLYGIGFGPFIITNKHLFRRNNGTLVVQSLHGVFKVKDTTTLQQHLVDGRDMIIIRMPKDFPPFPQKLKFREPQREERICLVTTNFQTKSMSSMVSDTSCTFFSGDGIFWKHWIQTKDGQCGSPLVSTRDGFIVGIHSASNFTNTNNYFTSVPKNFMELLTNQEAQQWVSGWRLNADSVLWGGHKVFMVKPEEPFQPVKEATQL [P134F] | 0.0386 | 0.061 | 0.0636 | – | – | – | 0.0589 | 0.0564 | – | 0.0526 | 0.0592 | 0.0618 | – | – | 0.0711 | 0.0736 | 0.0543 | 0.0543
MGESLFKGPRDYNPISSSICHLTNESDGHTTSLYGIGFGPFIITNKHLFRRNNGTLVVQSLHGVFKVKDTTTLQQHLVDGRDMIIIRMPKDFPPFPQKLKFREPQREERICLVTTNFQTKSMSSMVSDTSCTFPSGDGIFWKHWIQTKDGQCGSPLVSTRDTFIVGIHSASNFTNTNNYFTSVPKNFMELLTNQEAQQWVSGWRLNADSVLWGGHKVFMVKPEEPFQPVKEATQL [G162T] | 0.0781 | 0.0558 | 0.0651 | 0.109 | 0.0579 | – | 0.0611 | 0.0562 | 0.0798 | 0.0562 | – | – | 0.0613 | 0.0713 | – | – | 0.0854 | 0.0872
MGESLFKGPRDYNPISSSICHLTNESDGHTTSLYGIGFGPFIITNKHLFRRNNGTLVVQSLHGVFKVKDTTTLQQHLVDGRDMIIIRMPKDFPPFPQKLKFREPQREERICLVTTNFQTKSMSSMVSDTSCTFPSGDGIFWKHWIQTKDGQCGSPLVSTRDGFIVYIHSASNFTNTNNYFTSVPKNFMELLTNQEAQQWVSGWRLNADSVLWGGHKVFMVKPEEPFQPVKEATQL [G166Y] | 0.0408 | – | – | 0.0504 | 0.0781 | – | 0.0502 | – | – | 0.0728 | – | – | 0.053 | – | – | – | – | –
MGESLFKHPRDYNPISSSICHLTNESDGHTTSLYGIGFGPFIITNKHLFRRNNGTLVVQSLHGVFKVKDTTTLQQHLVDGRDMIIIRMPKDFPPFPQKLKFREPQREERICLVTTNFQTKSMSSMVSDTSCTFPSGDGIFWKHWIQTKDGQCGSPLVSTRDGFIVGIHSASNFTNTNNYFTSVPKNFMELLTNQEAQQWVSGWRLNADSVLWGGHKVFMVKPEEPFQPVKEATQL [G8H] | 0.0913 | – | 0.0737 | – | – | – | 0.0844 | – | 0.0753 | 0.07 | – | 0.087 | 0.0685 | – | – | 0.166 | – | –
